Test results: article PMC8550428 (2021)

Target: T1, GST-P58^IPK fusion protein (human (cDNA from HUVEC), UniProt Q13217 32-504)
T1 chain: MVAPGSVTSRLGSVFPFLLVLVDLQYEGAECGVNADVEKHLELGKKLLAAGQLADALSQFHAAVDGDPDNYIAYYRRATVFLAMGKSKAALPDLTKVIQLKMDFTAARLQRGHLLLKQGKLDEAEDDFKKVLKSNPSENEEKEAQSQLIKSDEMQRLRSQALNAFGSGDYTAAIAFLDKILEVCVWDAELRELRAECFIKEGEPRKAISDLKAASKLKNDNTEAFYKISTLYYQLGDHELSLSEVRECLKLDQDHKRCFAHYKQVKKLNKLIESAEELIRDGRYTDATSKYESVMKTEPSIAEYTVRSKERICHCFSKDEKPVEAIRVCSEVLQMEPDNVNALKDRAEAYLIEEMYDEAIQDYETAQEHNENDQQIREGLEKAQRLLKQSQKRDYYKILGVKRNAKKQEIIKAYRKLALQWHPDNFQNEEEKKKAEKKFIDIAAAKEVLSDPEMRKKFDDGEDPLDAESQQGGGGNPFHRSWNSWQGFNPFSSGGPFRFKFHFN
Assay: BLI

B1: C-terminally His tagged Hsp40 (natural protein)
chain: GKDYYQTLGLARGASDEEIKRAYRRQALRYHPDKNKEPGAEEKFKEIAEAYDVLSDPRKREIFDRYGEEGLKGSGPSGGSGGGANGTSFSYTFHGDPHAMFAEFFGGRNPFDTFFGQRNGEEGMDIDDPFSGFPMGMGGFTNVNFGRSRSAQEPARKKQ[letters of about 150 residues omitted]PERIPQTSRTVLEQVLPI
- koff: 0.0697 s⁻¹
